About 9,900 (2.8%) of roughly 350,000 compounds were called active. Inconclusive means that the source gave no clear call. Such entries were picked first, then a sample of the others. Calls follow the shape of the dose curve; as a rule, active = well fitted activation curve with a large enough effect; inconclusive = small, poorly fitted or top-dose-only effect; inactive = no such curve, though single readings can be large or run the other way. Potencies of inconclusive entries are left out as doubtful fits.
Test: A quantitative high throughput screen for small molecules that induce DNA re-replication in MCF 10a normal breast cells. Also: nearly all actives have a fitted effect of over 50% in size. As to activity, positive = re-replication: % of control where 0% means no effect.
Details: MCF 10A DNA re-replication, Hoechst nuclear intensity, 48 h; activity, positive = re-replication: at 46.1 µM (top of the series)
Potency is read from the fitted curve at half-maximal effect; tags tell the direction and shape of the fitted curve.

SMILES	Potency	activity, positive = re-replication
CCOC(=O)C1=C(C)N=c2s/c(=C\c3ccc(O)c([N+](=O)[O-])c3)c(=O)n2C1c1ccccc1OC (stereo not drawn)	inconclusive [activator, partial curve]	
NC(=O)c1cc(S(=O)(=O)N2CCCC2)ccc1OCCOc1ccccc1F		inactive: 3.77%
O=C(Nc1nc(-c2cccs2)c(-c2cccs2)s1)C1CCCC1	inconclusive [activator, single point]	
CCOC(=O)c1c(NC(=O)c2cccs2)sc2c1CCCC2	inconclusive [activator, partial curve, poor fit]	
C=CCN1c2ccccc2[C@]23C[C@@H](C(=O)OC)N(C(=O)CC(C)C)C2=NC(C(=O)OC)=C(C(=O)OC)[C@H]13	inconclusive [activator, partial curve, poor fit]	
CCNc1nc(Oc2ccc(C#N)cc2)cc(C(F)(F)F)n1		inactive: -14%
CCOC(=O)C1CCN(S(=O)(=O)c2cn(C)c(C)n2)CC1		inactive: 0.23%
C=CCn1c(NC(=O)c2ccccc2)nc2ccccc21	inconclusive [activator, single point]	
COc1ccc(N=C2C(=O)N3c4c(cccc42)C(C)=CC3(C)C)cc1	active: 20.6 µM	
COCCCN1C(=O)C(=O)/C(=C(/O)c2ccc(OC(C)C)cc2)C1c1ccncc1 (stereo not drawn)	inconclusive [activator, partial curve, poor fit]	
O=C(c1ccco1)N1CCN(C2CCCC2)CC1		inactive: -5.42%
O=C(NC(=S)Nc1nc(-c2cccc([N+](=O)[O-])c2)cs1)c1ccccc1Cl	inconclusive [activator, partial curve, poor fit]	
O=[N+]([O-])c1ccc(N2CCN(c3ccc(F)cc3)CC2)cc1		inactive: 4.36%
CCOc1ccccc1NC(=O)CCC(=O)Nc1ccc2nc(N3CCN(C)CC3)cc(C)c2c1	inconclusive [activator, single point]	
O=Cc1c[nH]c2ccc(NC(=O)OCc3ccccc3)cc12	inconclusive [activator, single point]	
c1ccc(CCNc2ncnc3c2nnn3Cc2ccccc2)cc1	inconclusive [activator, partial curve]	
COCCNC(=O)c1ccccc1NC(=O)c1ccccc1N(C)S(C)(=O)=O	inconclusive [activator, single point]	
CC(Nc1nc(-c2ccc(F)cc2)cs1)c1nc2cc(C(F)(F)F)ccc2n1CCCO (stereo not drawn)	inconclusive [activator, single point]	
